# A collection of fitness landscapes (doi:10.1016/j.celrep.2020.107928)
# In all, about 81,000 sequences were measured (“one-hybrid fitness for binding NBS DNA”: median about -0.1, highest 2% from about 0.36 on). The list shows a part of the results.
# B1: Caulobacter ParB omega fusion; a variant is named by its letters at X, in order, B8GW30 (parent)
# chain: MESVVVGEPGMSEGRRGLGRGLSALLGEVDAAPAQAPGEQLGGSREAPIEILQRNPDQPRRTFREEDLEDLSNSIREKGVLQPILVRPSPDTAGEYQIVAGERAWRAAQRAGLKTVPIMVRELDDLAVLEIGIIENVQRADLNVLEEALSYKVLMEKFERTQENIAQTIGKSXSHVANXMRLLXLPDEVQSYLVSGELTAXHARAIAAAADPVALAKQIIEGGLSVRETEALARKAPNLSAGKSKGGRPPRVKDTDTQALESDLSSVLGLDVSIDHRGSTGTLTITYATLEQLDDLCNRLTRGI
# Variants of: B1
# Test: one-hybrid fitness for binding NBS DNA (the Noc-binding site; scaled: cognate 1, non-cognate 0); higher = stronger binding
# Conditions: with NBS DNA site
# Procedure, shortened: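 Fitness is the rescaled log change in variant-to-wild-type read ratio, measured by Illumina sequencing of plasmids before and after bacterial one-hybrid selection. The scale puts cognate at 1 and non-cognate at 0. Selection of Caulobacter ParB libraries, four specificity codons randomised, took place in E. coli USO with a HIS3 reporter, site 19 bp from the promoter, over 48 hours at 37°C on M9-minus-histidine with 0.1 mM IPTG and 5 mM 3-AT.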
row,Variant,one-hybrid fitness for binding NBS DNA
1,QMKG,0.336
2,VLSL,≤ 0.2
3,MQAH,≤ 0.2
4,NPNF,≤ 0.2
5,QCAQ,≤ 0.2
6,YELP,≤ 0.2
7,KHGG,≤ 0.2
8,RGCW,≤ 0.2
9,RRMF,≤ 0.2
10,QHDV,≤ 0.2
11,FVSH,≤ 0.2
12,MLAR,≤ 0.2
13,SHRN,≤ 0.2
14,GYLC,≤ 0.2
15,RHCL,≤ 0.2
16,PQMA,≤ 0.2
17,KNQL,≤ 0.2
18,ETAA,≤ 0.2
19,WRWL,≤ 0.2
20,SLQN,≤ 0.2
21,QARQ,0.332
22,GVAC,≤ 0.2
23,MEAC,≤ 0.2
24,QRPT,0.576

row,Variant,one-hybrid fitness for binding NBS DNA
1,WTAN,≤ 0.2
2,PGRG,≤ 0.2
3,IRLE,≤ 0.2
4,YLLL,≤ 0.2
5,GDQQ,≤ 0.2
6,NHNN,≤ 0.2
7,RQKS,0.581
8,QLKQ,0.331
9,GGPT,≤ 0.2
10,LLQR,≤ 0.2
11,QIAP,≤ 0.2
12,NNGT,≤ 0.2
13,YMRL,≤ 0.2
14,QCRC,0.512
15,TPMR,≤ 0.2
16,NGDT,≤ 0.2
17,TICP,≤ 0.2
18,VDKS,≤ 0.2
19,DPVC,≤ 0.2
20,VYLN,≤ 0.2
21,SCFV,≤ 0.2
22,TMWG,≤ 0.2
23,PSTS,≤ 0.2
24,SHLK,≤ 0.2

row,Variant,one-hybrid fitness for binding NBS DNA
1,LGQY,≤ 0.2
2,QKIM,≤ 0.2
3,KLDV,≤ 0.2
4,TYRR,0.242
5,QGIA,≤ 0.2
6,SCCE,≤ 0.2
7,WPQS,≤ 0.2
8,NPYF,≤ 0.2
9,RWRE,≤ 0.2
10,EPPV,≤ 0.2
11,RDVV,≤ 0.2
12,LKQH,≤ 0.2
13,AVKM,≤ 0.2
14,RWNF,≤ 0.2
15,AYQR,≤ 0.2
16,GERT,≤ 0.2
17,AYLD,≤ 0.2
18,TRYV,≤ 0.2
19,KMLL,≤ 0.2
20,CAQA,≤ 0.2
21,NGSD,≤ 0.2
22,WPRM,≤ 0.2
23,TWTR,≤ 0.2
24,VAKN,≤ 0.2

row,Variant,one-hybrid fitness for binding NBS DNA
1,FGFS,≤ 0.2
2,GDSY,≤ 0.2
3,LVKG,≤ 0.2
4,VPFA,≤ 0.2
5,PGTP,≤ 0.2
6,DMGA,≤ 0.2
7,AMLI,≤ 0.2
8,AIQG,≤ 0.2
9,LATA,≤ 0.2
10,LAMI,≤ 0.2
11,LLFF,≤ 0.2
12,EKMR,≤ 0.2
13,QAWP,≤ 0.2
14,RSCN,≤ 0.2
15,AQHF,≤ 0.2
16,HRPA,≤ 0.2
17,CLDS,≤ 0.2
18,IEQW,≤ 0.2
19,PLRG,≤ 0.2
20,ASIP,≤ 0.2
21,VAMG,≤ 0.2
22,SRQA,≤ 0.2
23,NFFG,≤ 0.2
24,SPID,≤ 0.2

row,Variant,one-hybrid fitness for binding NBS DNA
1,LMSN,≤ 0.2
2,TAHL,≤ 0.2
3,NHPT,≤ 0.2
4,ASCG,≤ 0.2
5,GHPF,≤ 0.2
6,RMYM,≤ 0.2
7,FALA,≤ 0.2
8,RNWW,≤ 0.2
9,YELL,≤ 0.2
10,RTWF,≤ 0.2
11,SGAN,≤ 0.2
12,GVFC,≤ 0.2
13,YVCL,≤ 0.2
14,CAET,≤ 0.2
15,AVKT,≤ 0.2
16,LIDC,≤ 0.2
17,KSMW,≤ 0.2
18,ITPC,≤ 0.2
19,PHAK,≤ 0.2
20,DKWS,≤ 0.2
21,PSDC,≤ 0.2
22,HKAC,≤ 0.2
23,NWNS,≤ 0.2
24,WTLY,≤ 0.2

row,Variant,one-hybrid fitness for binding NBS DNA
1,MAWC,≤ 0.2
2,GPSA,≤ 0.2
3,CYSR,≤ 0.2
4,TEKY,≤ 0.2
5,MIDR,≤ 0.2
6,DAWS,≤ 0.2
7,MING,≤ 0.2
8,SWTS,≤ 0.2
9,NEPY,≤ 0.2
10,QVET,≤ 0.2
11,LANY,≤ 0.2
12,HPVQ,≤ 0.2
13,RCKM,0.238
14,PVSY,≤ 0.2
15,RCLV,≤ 0.2
16,ISPR,≤ 0.2
17,VIAV,≤ 0.2
18,LPQE,≤ 0.2
19,CRSF,≤ 0.2
20,GPHC,≤ 0.2
21,VEEM,≤ 0.2
22,HPFR,≤ 0.2
23,LMIF,≤ 0.2
24,QLWV,≤ 0.2

row,Variant,one-hybrid fitness for binding NBS DNA
1,GYES,≤ 0.2
2,ITWT,≤ 0.2
3,HILS,≤ 0.2
4,LAWC,≤ 0.2
5,PKNS,≤ 0.2
6,RLNK,≤ 0.2
7,FYKT,≤ 0.2
8,NWTF,≤ 0.2
9,MLSG,≤ 0.2
10,AVPT,≤ 0.2
11,TVET,≤ 0.2
12,HTHT,≤ 0.2
13,QTGY,0.312
14,KYWS,≤ 0.2
15,YRGS,≤ 0.2
16,QRVC,0.314
17,NEIT,≤ 0.2
18,SRAI,≤ 0.2
19,RCHG,≤ 0.2
20,LEPD,≤ 0.2
21,SRMM,≤ 0.2
22,HLSG,≤ 0.2
23,LAKT,≤ 0.2
24,YETG,≤ 0.2

row,Variant,one-hybrid fitness for binding NBS DNA
1,RYHQ,≤ 0.2
2,QEHF,≤ 0.2
3,TRVQ,≤ 0.2
4,FGRL,≤ 0.2
5,CCPS,≤ 0.2
6,RHVN,≤ 0.2
7,MTTA,≤ 0.2
8,PDTD,≤ 0.2
9,YSEY,≤ 0.2
10,KPFA,≤ 0.2
11,RQGI,≤ 0.2
12,GWLM,≤ 0.2
13,DVLS,≤ 0.2
14,CCYR,≤ 0.2
15,QDHM,≤ 0.2
16,RVLG,≤ 0.2
17,PKAT,≤ 0.2
18,YRLP,≤ 0.2
19,RPPL,≤ 0.2
20,YPAC,≤ 0.2
21,IRGF,≤ 0.2
22,RMWC,≤ 0.2
23,NFHG,≤ 0.2
24,HFAS,≤ 0.2

row,Variant,one-hybrid fitness for binding NBS DNA
1,TMLN,≤ 0.2
2,SCHF,≤ 0.2
3,KPVT,≤ 0.2
4,PNMK,≤ 0.2
5,WRHL,≤ 0.2
6,SLFV,≤ 0.2
7,YSAT,≤ 0.2
8,PKNY,≤ 0.2
9,CLSC,≤ 0.2
10,HSEC,≤ 0.2
11,GTSM,≤ 0.2
12,VMCS,≤ 0.2
13,GRRK,≤ 0.2
14,TALE,≤ 0.2
15,TPRI,≤ 0.2
16,FDSL,≤ 0.2
17,ITEG,≤ 0.2
18,HNRG,≤ 0.2
19,HRMM,≤ 0.2
20,RAFQ,≤ 0.2
21,GSPS,≤ 0.2
22,PCNG,≤ 0.2
23,SRRS,≤ 0.2
24,WFLP,≤ 0.2

row,Variant,one-hybrid fitness for binding NBS DNA
1,PFSS,≤ 0.2
2,SLGG,≤ 0.2
3,RIAK,≤ 0.2
4,HRNA,≤ 0.2
5,ARRP,≤ 0.2
6,NKYC,≤ 0.2
7,WTQC,≤ 0.2
8,TPRS,≤ 0.2
9,TPQR,≤ 0.2
10,GYVR,≤ 0.2
11,QEKA,≤ 0.2
12,LKRS,≤ 0.2
13,RVFG,≤ 0.2
14,LATT,≤ 0.2
15,RPCS,≤ 0.2
16,RNCQ,≤ 0.2
17,HGMN,≤ 0.2
18,GCPR,≤ 0.2
19,TNES,≤ 0.2
20,SPTN,≤ 0.2
21,VVMR,≤ 0.2
22,YAQA,≤ 0.2
23,QRKC,0.507
24,TYNQ,≤ 0.2

row,Variant,one-hybrid fitness for binding NBS DNA
1,VYRL,≤ 0.2
2,QNTW,≤ 0.2
3,KVWG,≤ 0.2
4,MHLM,≤ 0.2
5,KNIR,≤ 0.2
6,HLAS,≤ 0.2
7,IIHM,≤ 0.2
8,STEV,≤ 0.2
9,FTIG,≤ 0.2
10,QLQM,≤ 0.2
11,QVNS,0.377
12,CTYT,≤ 0.2
13,WHPE,≤ 0.2
14,IDWR,≤ 0.2
15,RKCN,≤ 0.2
16,NACR,≤ 0.2
17,HSCL,≤ 0.2
18,IMSS,≤ 0.2
19,LDKY,≤ 0.2
20,RCTH,0.237
21,DGKC,≤ 0.2
22,KWLC,≤ 0.2
23,FWQG,≤ 0.2
24,KLQV,≤ 0.2

row,Variant,one-hybrid fitness for binding NBS DNA
1,GRHY,≤ 0.2
2,CDMC,≤ 0.2
3,KGIV,≤ 0.2
4,LWIG,≤ 0.2
5,STGI,≤ 0.2
6,GIHR,≤ 0.2
7,ISDW,≤ 0.2
8,TKMW,≤ 0.2
9,NPTS,≤ 0.2
10,YQQS,≤ 0.2
11,WWRT,≤ 0.2
12,KSPN,≤ 0.2
13,RKCK,≤ 0.2
14,QQKE,0.335
15,NSRT,≤ 0.2
16,HGGT,≤ 0.2
17,RLIE,≤ 0.2
18,SESS,≤ 0.2
19,KMAF,0.358
20,RIPV,≤ 0.2
21,SSVN,≤ 0.2
22,KHTA,≤ 0.2
23,TDNG,≤ 0.2
24,SDYC,≤ 0.2

row,Variant,one-hybrid fitness for binding NBS DNA
1,GTAA,≤ 0.2
2,PTTV,≤ 0.2
3,PPGE,≤ 0.2
4,NVPW,≤ 0.2
5,SMCF,≤ 0.2
6,ISLN,≤ 0.2
7,NWKT,≤ 0.2
8,LTIS,≤ 0.2
9,WTRS,≤ 0.2
10,SDTY,≤ 0.2
11,TRWC,≤ 0.2
12,AIEC,≤ 0.2
13,RVLT,0.302
14,YYCC,≤ 0.2
15,FYDV,≤ 0.2
16,ACVN,≤ 0.2
17,YDCG,≤ 0.2
18,IRYT,≤ 0.2
